This is one part of the list. The main result of the screen is listed elsewhere. These columns were measured beside it and carry no call. Numbered stars: 1 amine (or outer) side, 2 acyl side, 3 side chain; on linkers, the order of the positions; unused ones are H or OH. Square brackets hold non-standard residues; d marks the D form. Peptide text beside a SMILES is read from it. X2 = O=C([C@@H](CC(O)CCl)O[*:1])[*:2]; aIle = CC[C@@H](C)[C@H](N)C(=O)O; NMeV = CN[C@H](C(=O)O)C(C)C; NMeA = CN[C@@H](C)C(=O)O; βAla = NCCC(=O)O

Experimental findings from PubChem BioAssay AID1745853 (National Center for Advancing Translational Sciences (NCATS), 2022) are described below.

Assay in all cases: Primary Screen for Target Class Profiling of Small Molecule Inhibitors of Methyltransferases
Assay [1] deals with Glycine N-methyltransferase (Homo sapiens) (UniProt Q14749). The conditions noted are these: purified enzyme, MTase-Glo SAH luminescence; measured here: GNMT inhibition; at 40 µM; stronger effect = lower value. An outline of the steps:
(§1)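 Each enzyme was assayed with SAM and its substrate. SAH formation detected by MTase-Glo luminescence; single-point 40 uM screen[…].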

Assay [2] addresses Guanidinoacetate N-methyltransferase (Homo sapiens) (UniProt Q14353). The note with it: purified enzyme, MTase-Glo SAH luminescence; measured here: GAMT inhibition; at 40 µM; stronger effect = lower value. An outline of the steps: as §1
Assay [3] concerns the target Histamine N-methyltransferase (Homo sapiens) (UniProt P50135). The conditions noted are these: purified enzyme, MTase-Glo SAH luminescence; measured here: HNMT inhibition; at 40 µM; stronger effect = lower value. The method, boiled down: as §1
Assay [4] addresses Nicotinamide N-methyltransferase (Homo sapiens) (UniProt P40261). The conditions noted are these: purified enzyme, MTase-Glo SAH luminescence; measured here: NNMT inhibition; at 40 µM; stronger effect = lower value. The method, boiled down: as §1
In assay [5] the target is Phenylethanolamine N-methyltransferase (Homo sapiens) (UniProt P11086). The note with it: purified enzyme, MTase-Glo SAH luminescence; measured here: PNMT inhibition; at 40 µM; stronger effect = lower value. The method, boiled down:
as §1
On the % scale 0 is the no-effect control and ±100 the full control effect.

Turning to `NC(=O)c1ncn2c1CN=C(c1ccccc1Br)c1cc(F)ccc1-2`, the activity change, negative = inhibition in assay [1] is 2.07%; in assay [2], -0.237%; in assay [3], 3.48%; in assay [4], -19.8%; in assay [5], -4.84%.

`CCC1c2cccn2-c2ccccc2CN1C(=O)Nc1ccccc1OC` (stereo not drawn): the activity change, negative = inhibition in assay [1] was -13.5%; in assay [2] it was 2.89%; in assay [3] it was 0.408%; in assay [4], -2.13%; in assay [5] it was 2.41%.

For `CC1=NN=C(c2ccc(N)cc2)c2cc3c(cc2C1)OCO3`, the activity change, negative = inhibition in assay [1] is -40.8%; in assay [2], -0.607%; in assay [3], -9.72%; in assay [4], -24.9%; in assay [5], -4.12%.

Take `CNC(=O)N1N=C(c2ccc(N)cc2)c2cc3c(cc2CC1C)OCO3` (stereo not drawn): the activity change, negative = inhibition in assay [1] was 2.77%; in assay [2], 2.24%; in assay [3], 11.9%; in assay [4], -14.2%; in assay [5], 4.58%.

Regarding `CCN1CCN(C(c2ccc(Cl)cc2)c2ccc(Cl)cc2)CC1`, the activity change, negative = inhibition in assay [2] was 8.29%; in assay [4], -19.2%; in assay [5], 1.8%.

Regarding `Nc1ncccc1CN1CC[C@H]2NCCC[C@]2(C(=O)O)C1`, the activity change, negative = inhibition in assay [1] was -4.81%; in assay [2], -6.5%; in assay [3] it was -7.03%; in assay [4], -10.2%; in assay [5], -6.67%.

Consider `Cc1ccc(C2c3cccn3-c3ccccc3CN2C(=O)Nc2cc(Cl)ccc2C)cc1` (stereo not drawn), for which the activity change, negative = inhibition in assay [1] is 3.45%; in assay [2], 2.9%; in assay [3], 2.18%; in assay [4] it was -0.085%; in assay [5], -0.483%.

Take `CN(CCc1ccccn1)C[C@H]1CN2CC[C@H]1C[C@@H]2CNC(=O)Nc1ccsc1`: the activity change, negative = inhibition in assay [1] was -0.818%; in assay [2] it was 1.85%; in assay [3], -52.5%; in assay [4] it was 3.69%; in assay [5] it was -1.95%.

Take `COC(=O)[C@@]1(C)C(=O)C=C[C@]2(C)c3c(O)cc(C(C)C)cc3[C@H](O)[C@@H](OC(C)=O)C12` (stereo partly drawn): the activity change, negative = inhibition in assay [1] was -0.562%; in assay [2] it was 7.08%; in assay [3] it was 5.67%; in assay [4] it was -5.11%; in assay [5], 5.58%.

As for `COc1cc(NC(=O)N2Cc3ccccc3-n3cccc3C2c2ccccc2)cc(OC)c1` (stereo not drawn), the activity change, negative = inhibition in assay [1] worked out at 6.33%; in assay [2], 0.103%; in assay [3] it was 5.46%; in assay [4], 7.1%; in assay [5] it was 5.26%.

In the case of `CCC1c2cccn2-c2ccccc2CN1C(=O)Nc1ccc(C)cc1` (stereo not drawn), the activity change, negative = inhibition in assay [1] was -1.8%; in assay [2] it was 0%; in assay [3] it was -1.72%; in assay [4] it was -3.3%; in assay [5] it was 2.01%.

With `CCOc1ccc(C2c3cccn3-c3ccccc3CN2C(=O)Nc2cc(OC)ccc2OC)cc1` (stereo not drawn), the activity change, negative = inhibition in assay [1] was -3.61%; in assay [2], -0.308%; in assay [3] it was 2.9%; in assay [4], -1.74%; in assay [5], -0.109%.

Take `CC(=O)[C@H]1CC[C@H]2[C@@H]3CC[C@H]4C[C@H](O)CC[C@]4(C)[C@H]3C(=O)C[C@]12C`: the activity change, negative = inhibition is -0.532% in assay [1]; 9.33% in assay [2]; 3.99% in assay [3]; -2.6% in assay [4]; 10.6% in assay [5].

On to `CC(=O)c1c(O)c(C)c(O)c(Cc2c(O)c3c(c(C(=O)/C=C/c4ccccc4)c2O)OC(C)(C)C=C3)c1O`, for which the activity change, negative = inhibition was -32.4% in assay [1]; 8.61% in assay [2]; 0.318% in assay [3]; -9.6% in assay [4]; -4.53% in assay [5].

For `CCOCCCNC(=O)N1Cc2ccccc2-n2cccc2C1c1ccccc1C` (stereo not drawn), the activity change, negative = inhibition worked out at 7.28% in assay [1]; 0.709% in assay [2]; 1.43% in assay [3]; 3.15% in assay [4]; 4.01% in assay [5].

On to `CCc1ccc(C2c3cccn3-c3ccccc3CN2C(=O)Nc2cccc(Br)c2)cc1` (stereo not drawn), for which the activity change, negative = inhibition in assay [1] was 3.97%; in assay [2], 0.601%; in assay [3], -2.07%; in assay [4], 2.64%; in assay [5] it was 4.2%.

Regarding `COc1ccccc1N1CCNCC1`, the activity change, negative = inhibition is 6.37% in assay [1]; 8.91% in assay [2]; 4.81% in assay [3]; -9.64% in assay [4]; -2.35% in assay [5].

Turning to `C=C1CC[C@H]2[C@@H](/C=C(\C)C(=O)[C@@]3(OC(C)=O)C[C@H](C)[C@H](OC(=O)c4ccccc4)[C@@H]3[C@H]1OC(C)=O)C2(C)C`, the activity change, negative = inhibition in assay [1] is 0.464%; in assay [2], -14.1%; in assay [3], 7.84%; in assay [4], -24.7%; in assay [5], -12.5%.

For `COCC1CN(C2CCC2)CC12CCN(Cc1ccncc1)CC2` (stereo not drawn), the activity change, negative = inhibition in assay [1] is -2.19%; in assay [2], -0.564%; in assay [3] it was -4.06%; in assay [4] it was -7.59%; in assay [5] it was -9.2%.

In the case of `COc1ccc(C2c3cccn3-c3ccccc3CN2C(=O)NCCc2ccccc2)cc1` (stereo not drawn), the activity change, negative = inhibition is 2.42% in assay [1]; 2.55% in assay [2]; -13.4% in assay [3]; -12.1% in assay [4]; -5.74% in assay [5].

As for `COc1ccc2[nH]c(-c3ccccc3)c(CCN(C)C)c2c1`, the activity change, negative = inhibition in assay [1] was 0.325%; in assay [2], 1.81%; in assay [3], 6.7%; in assay [4], -14.7%; in assay [5], 1.93%.

`CC[C@@H](C)[C@@H]1NC(=O)[C@@H]2CCCN2C(=O)[C@@H](CC(O)CCl)OC(=O)CCNC(=O)[C@H](C)N(C)C(=O)[C@H](C(C)C)N(C)C1=O` (stereo partly drawn) (cyclo([NMeA][βAla][X2]P[aIle][NMeV])): the activity change, negative = inhibition in assay [1] was 0%; in assay [2] it was 6.52%; in assay [3], 5.8%; in assay [4] it was -8.91%; in assay [5] it was 5.33%.

Consider `COC1CC(=O)C23C(=O)NC(CC(C)C)C2C(C)=C(C)C(OO)C3/C=C(\C)CCC(O)C1O` (stereo not drawn), for which the activity change, negative = inhibition in assay [1] is 2.36%; in assay [2], 8%; in assay [3] it was 7.69%; in assay [4], -4.66%; in assay [5], 7.55%.

With `COc1ccc2c3c([nH]c2c1)C(C=C(C)C)N1C(=O)C2CCCN2C(=O)C1C3` (stereo not drawn), the activity change, negative = inhibition is -1.24% in assay [1]; -0.354% in assay [2]; 8.03% in assay [3]; -13.9% in assay [4]; -9.45% in assay [5].

As to `Cc1cc(C)cc(NC(=O)N2Cc3ccccc3-n3cccc3C2C(C)C)c1` (stereo not drawn), the activity change, negative = inhibition was -0.524% in assay [1]; 0% in assay [2]; 6.91% in assay [3]; 7.08% in assay [4]; 6.34% in assay [5].

With `COc1ccc(NC(=O)N2Cc3ccccc3-n3cccc3C2c2cccc(C)c2)c(OC)c1` (stereo not drawn), the activity change, negative = inhibition was 11.8% in assay [1]; 0% in assay [2]; 10.8% in assay [3]; 4.84% in assay [4]; 6.02% in assay [5].

As for `C[C@]12CC[C@H](O)C[C@H]1CC[C@@H]1[C@@H]2[C@H](O)C(=O)[C@]2(C)[C@@H](c3ccc(=O)oc3)CC[C@]12O`, the activity change, negative = inhibition in assay [1] was 1.84%; in assay [2], 5.2%; in assay [3] it was 6.26%; in assay [4], -7.56%; in assay [5] it was 2.65%.

For the compound `CN1c2cccnc2CNCC[C@H]1CO`, the activity change, negative = inhibition was -3.37% in assay [1]; -8.1% in assay [2]; -10.5% in assay [3]; -9.25% in assay [4]; -4.75% in assay [5].

Turning to `COc1ccc(C(=O)NC[C@H]2C[C@@H]3CCN2C[C@@H]3c2cc(-c3cccs3)nn2C)cc1`, the activity change, negative = inhibition in assay [1] is -0.543%; in assay [2], -1.75%; in assay [3] it was -9.91%; in assay [4], -6.83%; in assay [5], -20.4%.

`CSc1ccc(C2c3cccn3-c3ccccc3CN2C(=O)Nc2ccccc2C(F)(F)F)cc1` (stereo not drawn): the activity change, negative = inhibition in assay [1] was -2.21%; in assay [2], 2.41%; in assay [3] it was 1.19%; in assay [4] it was -6.29%; in assay [5] it was 2.15%.
